Reference: PubChem BioAssay AID1963576 (National Center for Advancing Translational Sciences (NCATS), 2024)
Hit rate of the full screen: of about 46,000 compounds, about 60 (0.1%) were called active. Roughly 3% stayed inconclusive and do not appear here. Calls follow the shape of the dose curve; as a rule, active = well fitted inhibition curve with a large enough effect; inconclusive = small, poorly fitted or top-dose-only effect; inactive = no such curve, though single readings can be large or run the other way. Some of the results follow.

Assay: Primary qHTS assay for Inhibitors of ovarian cancer metastasis using an organotypic tumor microenvironment (TME) model. Also: nearly all actives have a fitted effect of over 65% in size.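 As to activity change, negative = inhibition: plate controls were DMSO wells for no effect and tomatine positive control wells for full effect.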
Conditions: SKOV3ip1-GFP adhesion/invasion on 3D omental model, fluorescence; series mostly up to 45.8 µM; activity change, negative = inhibition: at the top concentration
Procedure, shortened: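 A 3D layer of primary human omental fibroblasts, mesothelial cells, fibronectin and collagen I, grown 48 hr, received SKOV3ip1-GFP cells in serum-free medium plus compounds at 0.36-46 umol/L. After 2 hr RT and 16 hr 37 C, fixed adherent GFP cells were counted; normalized to DMSO and tomatine.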

Activity change, negative = inhibition, inactive:
CCn1c2ccccc2c2cc(NC(=O)COc3cc(C)c(Cl)c(C)c3)ccc21 0.238%
CCOc1ccc(-c2csc3ncnc(Nc4cccc(O)c4)c23)cc1 5.55%
Cc1ccccc1C(=O)Nc1ccc(NC(=O)c2cccs2)cc1 18.8%
COC(=O)c1cc(NC(=O)CCS(=O)(=O)c2cc(Br)cc3c2N(C(=O)C2CC2)CC3)cc(C(=O)OC)c1 1.67%
CCOc1cc2[nH]c(=O)n(CCC(=O)N3CCN(c4cccc(Cl)c4)CC3)c(=O)c2cc1OCC -3.78%
COc1ccc2oc(=O)c(C(=O)NCCc3c(C)[nH]c4c(C)cccc34)cc2c1 1.02%
CC(=O)N1CCCc2cc(S(=O)(=O)N3CCC(C(=O)NCc4ccc(F)cc4)CC3)ccc21 3.77%
CCOC(=O)c1c(C)oc2nc(C)nc(N3CCN(c4ccc(C)cc4C)CC3)c12 -4.06%
Cc1nc(-c2ccc(F)cc2)sc1CCNC(=O)c1ccccc1 1.77%
CCCN(C(=O)C1CCN(S(=O)(=O)c2c(C)noc2/C=C/c2ccc(C)cc2)CC1)c1ccccc1F -0.134%
COc1cc(OC)c(NC(=O)COc2ccccc2-c2nnc(-c3ccccc3)o2)cc1Cl -0.361%
COC(=O)c1cc(C)nc2c1c(=O)nc(SCc1cc(C)ccc1C)n2C1CC1 8.8%
CCCN(Cc1cc2cc(C)ccc2[nH]c1=O)C(=O)c1cccc(Cl)c1 -6.97%
CCOCCCNC(=O)c1c(NC(=O)Cc2coc3c(C)c(C)ccc23)sc2c1CCC2 -17.4%
Cc1cccc(C(=O)NC2(C(F)(F)F)N=C(c3ccccc3)N(Cc3ccccc3)C2=O)c1 (stereo unspecified) -21.2%
CCc1ccccc1Nc1nn2c(=O)c3ccc(C(=O)NCCc4ccccc4)cc3nc2s1 8.96%
COCCCN1CCc2nc(SCC(=O)Nc3ccc(C)c(Cl)c3)[nH]c(=O)c2C1 1.09%
CCOc1ccc2c(c1)c(=O)c(S(=O)(=O)c1ccc(C)cc1)cn2CC(=O)Nc1ccc(C)cc1 3.82%
O=C(CSc1nc2ccccc2n1CC(=O)Nc1ccc(F)cc1F)Nc1ccc(F)cc1 -7.48%
Cc1ccc(-c2c(CN3CCN(c4cc(Cl)ccc4C)CC3)csc2C)cc1 1.53%
CC(=O)N1CCc2c(sc3c2c(=O)n(-c2ccccc2Cl)c(=O)n3C)C1 -15.8%
Cc1nc2sccn2c(=O)c1S(=O)(=O)Nc1ccc(N2CCN(C)CC2)cc1 1.98%
Cn1nnnc1SCCCNCc1cc(Br)ccc1OCc1ccccc1 -17.4%
CCOC(=O)c1c(C)[nH]c(C)c1S(=O)(=O)N1CCC(C(=O)NCc2ccc(F)cc2)CC1 142%
Cc1cccc(N2CCN(C(=O)c3sc4nc5n(c(=O)c4c3C)CCC5)CC2C)c1 (stereo unspecified) -3.07%
CCOc1ccc(CCNC(=O)C(CC)n2nc(C)c3c(C)n(-c4ccccc4)nc3c2=O)cc1 (stereo unspecified) 1.98%
COc1ccc(-c2nn3c(=O)cc(CN4CCN(C(=O)Nc5cc(C)ccc5C)CC4)nc3s2)cc1 0.205%
O=c1[nH]c(SCc2ccccc2)nc2c1CCCC2 -3.71%
COC(=O)c1ccc(OCC2c3cc(OC)c(OC)cc3CCN2C(=O)c2ccc(OC)cc2)cc1 (stereo unspecified) 23.5%
O=C(NC1CCCC1)c1ccc(CSc2nc3cccnc3n2Cc2cccc(F)c2)cc1 0.42%
Cc1nc2ccn(Cc3cccnc3)c(=O)c2cc1C(=O)NCc1ccccc1 -4.08%
CCCCn1c(=O)c2oc3ccccc3c2n(CC(=O)Nc2cc(C)ccc2C)c1=O -0.896%
Cc1ccc(CNC(=O)Cc2c(C(=O)O)c(C)cn2C)cc1 -2.1%
CCc1ccc(OCC(=O)Nc2ccc(S(=O)(=O)Nc3onc(C)c3C)cc2)cc1 -23.3%
Cc1ccc2oc(=O)n(CCNC(=O)Nc3ccccc3C)c2c1 4.92%
COc1cc(OC)c(NC(=O)Cc2c(C(=O)O)c(C)cn2C)cc1Cl 3.99%
COc1ccc(NC(=O)C2=C(C)Nc3ncnn3C2c2sccc2C)cc1 (stereo unspecified) -12.9%
Cc1cccc(NC(=O)Cn2c(=O)n(CCc3ccccc3)c(=O)c3ccccc32)c1 25.8%
COc1ccc(C)cc1NC(=O)C(NS(=O)(=O)c1cccs1)c1ccccc1 (stereo unspecified) 1.57%
Cc1ccccc1NC(=O)Nc1csc2c1CCCC2 -1.82%
COc1cc(OC)c(NC(=O)c2sc3nc4n(c(=O)c3c2C)CCCC4)cc1Cl 13.2%

outcome, inactive:
CCOC(=O)Cn1nc(C)c(NC(=O)COc2ccc(OC)cc2)c1C
COc1ccc(C(=O)NCC(c2ccco2)S(=O)(=O)c2ccccc2)cc1 (stereo unspecified)
CCN1CCOC(=O)C1CC(=O)Nc1ccccc1C(F)(F)F (stereo unspecified)
Cc1cccc(NC(=O)C2CCC(CNS(=O)(=O)c3ccc4c(c3)CCCC(=O)N4)CC2)c1C (stereo unspecified)
Cc1cc(C)cc(N(C)S(=O)(=O)c2nnc(NC(=O)COc3ccc(C)c(C)c3)s2)c1
CC(=O)c1ccc(NC(=O)c2cccc(NC(=O)N3CCSc4ncccc43)c2)cc1
Cc1c(Cl)cccc1NC(=O)CN1C(=O)c2ccccc2Sc2ncccc21
CCn1c(=O)c2cc(C(=O)NCCc3cccc(C)c3)sc2c2ccccc21
COc1ccc(-n2c(SCc3nc(-c4ccc(C)cc4)no3)nnc2-c2ccncc2)cc1
Cc1cc(-c2ccc(S(=O)(=O)Nc3cccc(C)c3C)s2)on1
COc1ccc(-c2c(C#N)c(SCC(=O)Nc3ccc(C)c(C)c3)nc(C)c2C(=O)Nc2ccc(Cl)cc2)cc1
CCCCSCCCNC(=O)C1CCN(Cc2nc(-c3ccc(CC)cc3)oc2C)CC1
COc1cc(OC)c(NC(=O)NCCn2nnc3cc(S(=O)(=O)N(C)C)ccc32)cc1Cl
O=C(CSc1nnc(-c2ccccc2Br)n1-c1ccccc1)c1ccc(F)cc1
COc1ccc(OC2CCN(S(=O)(=O)c3cccc(F)c3)CC2)cc1
COc1ccc(C2C(C(=O)Nc3ccccc3)=C(C)Nc3nc(-c4ccccc4)nn32)c(OC)c1 (stereo unspecified)
Cc1cccc(C(=O)N2CCNC(=O)C2CC(=O)Nc2ccc(F)cc2)c1 (stereo unspecified)
COc1ccc(C(=O)CSc2nc3cc(C(=O)NC4CCCC4)ccc3c(=O)n2CC2CCCO2)cc1 (stereo unspecified)
CCOc1ccc(CN2C(=O)c3ccccc3Sc3ccc(C(=O)NCc4ccc5c(c4)OCO5)cc32)cc1
COc1ccc(S(=O)(=O)NCCc2sc(C)nc2C)cc1
